Results on 39 compounds are retold here after the supplement of paper PMC8512760.

The other results are listed elsewhere or left out. Many values rest on one well or one pass, so single values are uncertain.
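Also: stably firefly luciferase-GFP labeled cells in 96-well plates, viability read as luciferase photon flux after d-luciferin addition, treated wells normalized to vehicle wells, single-dose high-throughput screen.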

One experiment relates to HCC-1187. Put plainly: cell viability relative to vehicle (% of vehicle); basal-like triple-negative breast cancer lines; higher = less cytotoxic. Conditions: 10 µM; 72 h.
Take `O=C(O)c1ccccc1` [Benzoic Acid]: the cell viability is 124.
In turn, `CCNC1CC(N)C(OC2OC(CN)=CCC2N)C(O)C1OC1OCC(C)(O)C(NC)C1O.CCNC1CC(N)C(OC2OC(CN)=CCC2N)C(O)C1OC1OCC(C)(O)C(NC)C1O.O=S(=O)(O)O.O=S(=O)(O)O.O=S(=O)(O)O.O=S(=O)(O)O.O=S(=O)(O)O` (centres undefined) [Netilmicin Sulfate] came in with a cell viability of 77.5.
Same read-out and setting: with `CCN(Cc1ccncc1)C(=O)C(CO)c1ccccc1` (centres undefined) [Tropicamide] the figure was 87.9; with `CC(C(=O)[O-])c1cccc(Oc2ccccc2)c1.CC(C(=O)[O-])c1cccc(Oc2ccccc2)c1.[Ca+2]` (centres undefined) [Fenoprofen Calcium], 121; with `O=c1[nH]c(=O)n(C2CC(O)C(CO)O2)cc1F` (centres undefined) [Floxuridine], 39.
On the same count and under the same terms, with `CCNC1CC(C)S(=O)(=O)c2sc(S(N)(=O)=O)cc21.Cl` (centres undefined) [Dorzolamide HCl] the figure was 83.6.
On the same count and under the same terms, with `Nc1nnc(-c2cccc(Cl)c2Cl)c(N)n1` [Lamotrigine] the figure was 104; with `CC(C)(Oc1ccc(Cl)cc1)C(=O)O` [Clofibric Acid], 98.2.
Turning to `CCCC(CCC)C(=O)[O-].[Na+]` [Valproic acid sodium salt (Sodium valproate)], the cell viability was determined as 90.
Same read-out and setting: under `CC(C(=O)O)c1ccc2c(c1)CC(=O)c1ccccc1S2` (centres undefined) [Zaltoprofen] stands 93.4; under `CCn1cc(C(=O)O)c(=O)c2cc(F)c(N3CCN(C)CC3)cc21.CS(=O)(=O)O` [Pefloxacin Mesylate], 68.3; under `CNCCc1ccccn1.Cl.Cl` [Betahistine 2HCl], 98.9.
The compound `Cc1cc(C(C)(C)C)cc(C)c1CC1=NCCN1.Cl` [Xylometazoline HCl] returned a cell viability of 124.
`Cc1c(F)cc(C(=O)NC2CC2)cc1-c1ccc(C(=O)NCC(C)(C)C)cn1` [Losmapimod] gave a cell viability of 107.
The same measure, in the same setting: under `CC(S)C(=O)NCC(=O)O` (centres undefined) [Tiopronin (Thiola)] stands 106.
On to `CC(C)Nc1cc(-c2c[nH]c(C(=O)NC(CO)c3cccc(Cl)c3)c2)c(Cl)cn1` (centres undefined), for which the cell viability was 83.2.
Still for that read-out and setting: with `CCCS(=O)(=O)Nc1ccc(F)c(C(=O)c2c[nH]c3ncc(-c4ccc(Cl)cc4)cc23)c1F` [Vemurafenib (PLX4032, RG7204)] the figure was 93.8.
Consider `CC(C)OC(=O)OCOP(=O)(COC(C)Cn1cnc2c(N)ncnc21)OCOC(=O)OC(C)C.O=C(O)C=CC(=O)O` (centres undefined) [Tenofovir Disoproxil Fumarate], for which the cell viability is 64.9.
Still for that read-out and setting: with `CCC1OC(=O)C(C)C(OC2CC(C)(OC)C(O)C(C)O2)C(C)C(OC2OC(C)CC(N(C)C)C2O)C(C)(OC)CC(C)C(=O)C(C)C(O)C1(C)O` (centres undefined) [Clarithromycin] the figure was 94.7; with `Cc1c(Cl)cccc1Nc1ccccc1C(=O)O` [Tolfenamic Acid], 86.7; with `Cc1cn(C2C=CC(CO)O2)c(=O)[nH]c1=O` (centres undefined) [Stavudine (d4T)], 97.
The same measure, in the same setting: with `CN1C2CCC1CC(OC(c1ccccc1)c1ccccc1)C2.CS(=O)(=O)O` (centres undefined) [Benztropine mesylate] the figure was 102; with `COC(=O)NC(C(=O)NC(Cc1ccccc1)C(O)CN(Cc1ccc(-c2ccccn2)cc1)NC(=O)C(NC(=O)OC)C(C)(C)C)C(C)(C)C.O=S(=O)(O)O` (centres undefined), 59.4; with `COc1cc2nc(N3CCN(C(=O)C4COc5ccccc5O4)CC3)nc(N)c2cc1OC.CS(=O)(=O)O` (centres undefined) [Doxazosin Mesylate], 99.5.
`O=C(c1cc(Cc2n[nH]c(=O)c3ccccc23)ccc1F)N1CCN(C(=O)C2CC2)CC1` returned a cell viability of 67.

Another experiment concerns MDA-468. The experiment is described as above. The conditions noted are these: 10 µM; 72 h.
`CC(C)C1C(=O)NC(CCCN=C(N)N)C(=O)NCC(=O)NC(CC(=O)O)C(=O)NC(Cc2ccccc2)C(=O)N1C` (centres undefined) [Cilengitide] displayed a cell viability of 105.
On the same count and under the same terms, under `CC(O)C(=O)O.CC(O)C(=O)O.CN1CCN(c2ccc3c(c2)NC(=C2C(=O)N=c4cccc(F)c4=C2N)N3)CC1` [Dovitinib Dilactic acid] stands 44.4; under `CC1(C)O[C@@H]2C[C@H]3[C@@H]4CCC5=CC(=O)C=C[C@]5(C)[C@H]4[C@@H](O)C[C@]3(C)[C@]2(C(=O)CO)O1` [Desonide], 131.
The same measure, in the same setting: under `CN(C)CC=CC(=O)Nc1cc2c(Nc3ccc(F)c(Cl)c3)ncnc2cc1OC1CCOC1.O=C(O)C=CC(=O)O.O=C(O)C=CC(=O)O` (centres undefined) [Afatinib dimaleate] stands 27.3.
Take `NC(CO)(CO)CO` [Trometamol]: the cell viability was 100.
On the same count and under the same terms, under `CC1=C2N=C(C=C3N=C(C(C)=C4[N-]C(C)(C5N=C1C(C)(CCC(=O)NCC(C)OP(=O)([O-])OC1C(CO)OC(n6cnc7cc(C)c(C)cc76)C1O)C5CC(N)=O)C(C)(CC(N)=O)C4CCC(N)=O)C(C)(CC(N)=O)C3CCC(N)=O)C(C)(C)C2CCC(N)=O.[CH3-].[Co+3]` (centres undefined) [Methylcobalamin] stands 117; under `O=C1NC([O-])=NC1(c1ccccc1)c1ccccc1.[Na+]` [Phenytoin sodium], 101; under `CCC(C)C(=O)OC1CC(C)C=C2C=CC(C)C(CCC3CC(O)CC(=O)O3)C21` (centres undefined) [Lovastatin], 89.2.
Still for that read-out and setting: with `C#CC1(OC(C)=O)CCC2C3CCC4=CC(OC(C)=O)CCC4C3CCC21C` (centres undefined) [Ethynodiol diacetate] the figure was 91.9; with `CC1(O)CC(c2nc(-c3ccc4ccc(-c5ccccc5)nc4c3)c3c(N)nccn23)C1` (centres undefined) [Linsitinib], 124.
In the case of `CCCCOc1cc(C(=O)NCCN(CC)CC)c2ccccc2n1` [Dibucaine], the cell viability is 122.
As for `C#CC1(O)CCC2C3CCc4cc(O)ccc4C3CCC21C` (centres undefined) [Ethinyl Estradiol], the cell viability came to 113.
On the same count and under the same terms, under `CCC(C)n1ncn(-c2ccc(N3CCN(c4ccc(OCC5COC(Cn6cncn6)(c6ccc(Cl)cc6Cl)O5)cc4)CC3)cc2)c1=O` (centres undefined) [Itraconazole] stands 90.6.
`O=C1C(CCC(O)c2ccc(F)cc2)C(c2ccc(O)cc2)N1c1ccc(F)cc1` (centres undefined) [Ezetimibe] came in with a cell viability of 103.
The same measure, in the same setting: with `O=C(O)c1ccccc1` [Benzoic Acid] the figure was 118; with `CCNC1CC(N)C(OC2OC(CN)=CCC2N)C(O)C1OC1OCC(C)(O)C(NC)C1O.CCNC1CC(N)C(OC2OC(CN)=CCC2N)C(O)C1OC1OCC(C)(O)C(NC)C1O.O=S(=O)(O)O.O=S(=O)(O)O.O=S(=O)(O)O.O=S(=O)(O)O.O=S(=O)(O)O` (centres undefined) [Netilmicin Sulfate], 94.9; with `CCN(Cc1ccncc1)C(=O)C(CO)c1ccccc1` (centres undefined) [Tropicamide], 93.2.
On the same count and under the same terms, with `CC(C(=O)[O-])c1cccc(Oc2ccccc2)c1.CC(C(=O)[O-])c1cccc(Oc2ccccc2)c1.[Ca+2]` (centres undefined) [Fenoprofen Calcium] the figure was 94.1.
On the same count and under the same terms, under `O=c1[nH]c(=O)n(C2CC(O)C(CO)O2)cc1F` (centres undefined) [Floxuridine] stands 31.3; under `CCNC1CC(C)S(=O)(=O)c2sc(S(N)(=O)=O)cc21.Cl` (centres undefined) [Dorzolamide HCl], 88.7.
`Nc1nnc(-c2cccc(Cl)c2Cl)c(N)n1` [Lamotrigine]: the cell viability came to 103.
The same measure, in the same setting: with `CC(C)(Oc1ccc(Cl)cc1)C(=O)O` [Clofibric Acid] the figure was 100; with `CCCC(CCC)C(=O)[O-].[Na+]` [Valproic acid sodium salt (Sodium valproate)], 91.5; with `CC(C(=O)O)c1ccc2c(c1)CC(=O)c1ccccc1S2` (centres undefined) [Zaltoprofen], 112.
Consider `CCn1cc(C(=O)O)c(=O)c2cc(F)c(N3CCN(C)CC3)cc21.CS(=O)(=O)O` [Pefloxacin Mesylate], for which the cell viability was 83.
Compound `CNCCc1ccccn1.Cl.Cl` [Betahistine 2HCl] gave a cell viability of 97.4.
The same measure, in the same setting: with `Cc1cc(C(C)(C)C)cc(C)c1CC1=NCCN1.Cl` [Xylometazoline HCl] the figure was 103; with `Cc1c(F)cc(C(=O)NC2CC2)cc1-c1ccc(C(=O)NCC(C)(C)C)cn1` [Losmapimod], 122.
The same measure, in the same setting: under `CC(S)C(=O)NCC(=O)O` (centres undefined) [Tiopronin (Thiola)] stands 118; under `CC(C)Nc1cc(-c2c[nH]c(C(=O)NC(CO)c3cccc(Cl)c3)c2)c(Cl)cn1` (centres undefined), 135; under `CCCS(=O)(=O)Nc1ccc(F)c(C(=O)c2c[nH]c3ncc(-c4ccc(Cl)cc4)cc23)c1F` [Vemurafenib (PLX4032, RG7204)], 50.8.
Same read-out and setting: with `CC(C)OC(=O)OCOP(=O)(COC(C)Cn1cnc2c(N)ncnc21)OCOC(=O)OC(C)C.O=C(O)C=CC(=O)O` (centres undefined) [Tenofovir Disoproxil Fumarate] the figure was 86.6; with `CCC1OC(=O)C(C)C(OC2CC(C)(OC)C(O)C(C)O2)C(C)C(OC2OC(C)CC(N(C)C)C2O)C(C)(OC)CC(C)C(=O)C(C)C(O)C1(C)O` (centres undefined) [Clarithromycin], 92.
On to `Cc1c(Cl)cccc1Nc1ccccc1C(=O)O` [Tolfenamic Acid], for which the cell viability worked out at 107.
The same measure, in the same setting: under `Cc1cn(C2C=CC(CO)O2)c(=O)[nH]c1=O` (centres undefined) [Stavudine (d4T)] stands 88.4; under `CN1C2CCC1CC(OC(c1ccccc1)c1ccccc1)C2.CS(=O)(=O)O` (centres undefined) [Benztropine mesylate], 110.
Same read-out and setting: under `COC(=O)NC(C(=O)NC(Cc1ccccc1)C(O)CN(Cc1ccc(-c2ccccn2)cc1)NC(=O)C(NC(=O)OC)C(C)(C)C)C(C)(C)C.O=S(=O)(O)O` (centres undefined) stands 89; under `COc1cc2nc(N3CCN(C(=O)C4COc5ccccc5O4)CC3)nc(N)c2cc1OC.CS(=O)(=O)O` (centres undefined) [Doxazosin Mesylate], 103; under `O=C(c1cc(Cc2n[nH]c(=O)c3ccccc23)ccc1F)N1CCN(C(=O)C2CC2)CC1`, 79.5.
